According to PubChem BioAssay AID1963576 (National Center for Advancing Translational Sciences (NCATS), 2024):
Out of some 46,000 compounds screened, about 60 (0.1%) were called active. Another 3% or so got no clear call; they are omitted. Calls come from the whole dose curve; as a rule, active = well fitted inhibition curve with a large enough effect; inconclusive = small, poorly fitted or top-dose-only effect; inactive = no such curve, though single readings can be large or run the other way. The list shows a part of the results.

Test: Primary qHTS assay for Inhibitors of ovarian cancer metastasis using an organotypic tumor microenvironment (TME) model.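 For activity change, negative = inhibition: plate controls were DMSO wells for no effect and tomatine positive control wells for full effect.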 Note: nearly all actives have a fitted effect of over 65% in size.
Details: SKOV3ip1-GFP adhesion/invasion on 3D omental model, fluorescence; series mostly up to 45.8 µM; activity change, negative = inhibition: at the top concentration
Outline: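 A 3D layer of primary human omental fibroblasts, mesothelial cells, fibronectin and collagen I, grown 48 hr, received SKOV3ip1-GFP cells in serum-free medium plus compounds at 0.36-46 umol/L. After 2 hr RT and 16 hr 37 C, fixed adherent GFP cells were counted; normalized to DMSO and tomatine.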

Activity change, negative = inhibition, inactive:
Cc1ccc(CSCCC(=O)N2CCN(c3cc(C)ccc3C)CC2)cc1 0.237%
CCCN(CCC)C(=O)C1CCCN(c2ncnc3onc(-c4ccc(F)cc4)c23)C1 (centres undefined) 6.98%
Cc1ccc(C(=O)Nc2ccccc2C(=O)OCc2cc(=O)n3nc(C4CC4)sc3n2)cc1 0.555%
COc1cc(C)ccc1OCCSc1nc2ccc(NC(=O)c3cccs3)cc2s1 2.25%
Cc1ccc(CNS(=O)(=O)c2cc3c(cc2C)N(C)CCO3)cc1 -9.4%
Cc1ccc(Cn2ccnc2SCC(=O)Nc2ccc3c(c2)OCCO3)cc1 -4.16%
COc1ccc(/C=C/C(=O)Nc2ccc(Cl)cc2Cl)cc1 0.173%
CCN(CC)CCCNC(=O)C(=O)Nc1ccc2nc3n(c(=O)c2c1)CCCCC3 14.9%
Cc1ccc(NC(=O)c2ccc3c(c2)NC(=O)c2ccccc2S3)cc1 -7.51%
Cc1cc(C)cc(NC(=O)CCCc2nnc3n(CC(C)C)c(=O)c4sccc4n23)c1 7.46%
CC(=O)Nc1cccc(NC(=O)CSc2nccn2Cc2ccco2)c1 -5.01%
Cc1ccc(S(=O)(=O)C(CNC(=O)COc2ccc(Cl)cc2)c2ccco2)cc1 (centres undefined) 21.5%
Cc1ccc(CNC(=O)c2cccc(NC(=O)N3CCSc4ncccc43)c2)cc1 16.9%
COc1ccc(-c2cc(C(=O)Nc3sc4c(c3C(N)=O)CCC(C)C4)no2)cc1 (centres undefined) 2.41%
CCOc1cc(C2CC(=O)Nc3c2c(=O)nc(SCc2cccc(Cl)c2)n3C)ccc1O (centres undefined) -18.4%
O=C(Nc1cccc(Cl)c1)c1cc(S(=O)(=O)N2CCCc3ccccc32)ccc1F 2.57%
Cc1ccccc1CNC(=O)c1cc2cccc3c2n1CC(C)S3 (centres undefined) 6.45%
CC(=O)Nc1ccc(NC(=O)c2nc(SCc3ccccc3C)ncc2Cl)cc1 -8.57%
Cc1c(NC(=O)Nc2ccc(Cl)c(C(F)(F)F)c2)c(=O)n(-c2ccccc2)n1C -6.26%
CCOc1ccc(OCC)c(-n2cnnn2)c1 -4.42%
Cc1cccn2c(=O)cc(COc3ccc(NC(=O)C(C)Oc4ccccc4)cc3)nc12 (centres undefined) 6.42%
NS(=O)(=O)c1ccc(NC(=O)CN2CCN(c3ccc(F)cc3)CC2)cc1 4.63%
CCCCNC(=O)c1cc(-c2ccc(Cl)c(Cl)c2)on1 71.1%
CCc1ccc(C2CC(=O)NC(NC(=O)c3ccc(C(C)(C)C)cc3)=N2)cc1 (centres undefined) 0.735%
Cc1c(-c2ccccc2)c(=O)oc2c(CN3CCCC3)c(O)ccc12 12.9%
Cn1c(=O)[nH]c(=O)c2c1nc(NCCO)n2CC(O)COc1ccccc1 (centres undefined) 2.33%
O=C(CCCn1ccc2cc(S(=O)(=O)N3CCCC3)ccc21)NCc1ccc(Cl)cc1 -23.5%
COc1cccc(CNC(=O)CN2C(=O)COc3ccc(S(=O)(=O)N4CCCCCC4)cc32)c1 1.05%
CC=CC[C@@H](C)C(=O)[C@H]1C(=O)N[C@@H](C(C)C)C(=O)N(C)CC(=O)N(C)[C@@H](CC(C)C)C(=O)N[C@@H](C(C)C)C(=O)N(C)[C@@H](CC(C)C)C(=O)N[C@@H](C)C(=O)N[C@H](C)C(=O)N(C)[C@@H](CC(C)C)C(=O)N(C)[C@@H](CC(C)C)C(=O)N(C)[C@@H](C(C)C)C(=O)N1C -11.6%
CCOc1ccc(NC(=O)Cn2c(=O)n(Cc3ccc(C(=O)NCc4ccc(C)cc4)cc3)c(=O)c3ccccc32)cc1 -17.9%
Cc1ccc(CSC2=Nc3ccccc3C3=NC(CC(=O)NCc4cccs4)C(=O)N23)cc1 (centres undefined) 0.621%
Cc1ccc(CNC(=O)c2cc3c(s2)-c2ccc(Cl)cc2SC3)cc1 -4.25%
CN(C)c1ccc(NC(=O)CN2CCN(CC(=O)Nc3ccc(Br)cc3)CC2)cc1 5.94%
Cc1ccc(-c2nc3ncccc3o2)cc1NC(=O)c1ccccc1Br -4.36%
CCc1cccc(NC(=O)Cn2c(=O)n(CCC(=O)NCC3CCCO3)c(=O)c3cc(OC)c(OC)cc32)c1 (centres undefined) -3.36%
CCOc1ccc(NC(=O)NCCn2nnc3cc(S(=O)(=O)N(C)C)ccc32)cc1 -13.9%
O=C(NCC1CCCO1)c1c[nH]c2ccc(S(=O)(=O)Nc3ccc(F)cc3F)cc2c1=O (centres undefined) 0.323%
CCN(C(=O)C1CCCN(c2ncnc3onc(-c4ccc(F)cc4)c23)C1)c1ccccc1 (centres undefined) -5.58%
O=C(c1cccc(F)c1)N1CCC(c2c[nH]c3ccccc23)(c2c[nH]c3ccccc23)CC1 13.9%
CCOc1ccc(C(CC(=O)Nc2cc(C)c(Cl)cc2OC)N2Cc3ccccc3C2=O)cc1OC (centres undefined) 26.4%
Cc1ccc(CNC(=O)c2sc3nc(-c4ccc(F)cc4)ccc3c2N)cc1 7.13%

outcome, inactive:
CCc1ccc(NC(=O)CSc2nc3c(sc4ccccc43)c(=O)n2CCN(CC)CC)cc1
Cc1cn2c(=O)cc(COC(=O)c3ccccc3F)nc2s1
O=C(CN1C(=O)C2(SCC(=O)N2c2ccccc2)c2ccccc21)NCCc1ccccc1 (centres undefined)
CCOc1ccc(-c2nnc(SCC(=O)c3ccc(F)cc3)n2-c2ccccc2)cc1
Cc1ccc(NC(=O)Cn2cc(C(=O)c3ccco3)c3ccccc32)c(C)c1
COc1cccc(OCc2cc(=O)n3cc(C)sc3n2)c1
Fc1ccccc1N1CCN(c2ncnc3onc(-c4cccc(Cl)c4)c23)CC1
Cc1ccc(Cl)cc1-n1ncc2c(NCCC3=CCCCC3)ncnc21
COc1ccc(-n2c(SCC(=O)NC3CCCCC3)nc3c([nH]c4ccccc43)c2=O)cc1
COc1ccc(-c2cc3c(=O)n(CC(=O)Nc4cc(C)ccc4C)ccn3n2)cc1
Cn1c(=O)c2c(-c3ccccc3Br)n(Cc3ccccc3)cc2n(C)c1=O
CCOc1ccc(/C=C/c2nc(C#N)c(Nc3ccc(OCC)cc3)o2)cc1
CC1CC(=O)N(CC(=O)Nc2ccc(F)cc2F)c2ccccc2S1 (centres undefined)
O=C(NCCc1ccc(Cl)cc1)c1ccc2c(c1)N(Cc1ccccc1F)C(=O)c1ccccc1S2(=O)=O
COc1ccc(NC(=O)Nc2cccc(-c3cn4cccnc4n3)c2)cc1
Cc1nc2ccn(Cc3ccccc3)c(=O)c2cc1C(=O)NCc1ccccc1F
CC(C)(C)c1ccc(-c2nc(S(=O)(=O)c3ccccc3)c(N3CCOCC3)o2)cc1
COc1ccc(C(=O)Nc2nnc(S(=O)(=O)N3CCC(C)CC3)s2)cc1OC
